Assay results taken from paper PMC12537989.
These are yes or no findings as the source states them, for the method shown. In cells and extracts the contact can be indirect. Some results given as binding are weak or reduced against the parent protein; the word gives no strength.

What was measured:
Test in all cases: co-IP; HEK293T cells co-transfected with SLC9A9 and the partner plasmid, collected 36 h after transfection; lysed in 50 mM Tris-HCl pH 7.4, 1 mM EDTA, 150 mM NaCl, 1% Triton; protein A/G Plus-Agarose and 3 ug antibody, 12 h at 4 C, 5 washes; immunoblot; some samples with amiloride treatment (interaction inhibited)
Vps33b (mouse) = target: T1, Vps33b (mouse) (UniProt P59016)
T1 sequence: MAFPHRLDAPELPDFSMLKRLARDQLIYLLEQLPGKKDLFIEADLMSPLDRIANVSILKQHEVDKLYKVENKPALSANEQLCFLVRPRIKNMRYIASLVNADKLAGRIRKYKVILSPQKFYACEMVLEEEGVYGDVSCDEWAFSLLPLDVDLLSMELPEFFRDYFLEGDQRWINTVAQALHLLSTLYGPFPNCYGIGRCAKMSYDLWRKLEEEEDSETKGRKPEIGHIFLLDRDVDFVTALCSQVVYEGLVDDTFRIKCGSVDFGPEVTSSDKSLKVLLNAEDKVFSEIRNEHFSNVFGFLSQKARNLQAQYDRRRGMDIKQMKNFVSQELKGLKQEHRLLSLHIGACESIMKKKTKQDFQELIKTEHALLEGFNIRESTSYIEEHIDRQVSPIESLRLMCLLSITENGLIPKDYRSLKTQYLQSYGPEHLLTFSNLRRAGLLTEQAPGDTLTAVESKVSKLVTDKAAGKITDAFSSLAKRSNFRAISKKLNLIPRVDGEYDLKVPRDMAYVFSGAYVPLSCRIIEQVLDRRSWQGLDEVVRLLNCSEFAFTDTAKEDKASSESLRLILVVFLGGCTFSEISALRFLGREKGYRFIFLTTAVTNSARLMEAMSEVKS

Vps33a (mouse) = target: T2, Vps33a (mouse) (UniProt Q9D2N9)
T2 sequence: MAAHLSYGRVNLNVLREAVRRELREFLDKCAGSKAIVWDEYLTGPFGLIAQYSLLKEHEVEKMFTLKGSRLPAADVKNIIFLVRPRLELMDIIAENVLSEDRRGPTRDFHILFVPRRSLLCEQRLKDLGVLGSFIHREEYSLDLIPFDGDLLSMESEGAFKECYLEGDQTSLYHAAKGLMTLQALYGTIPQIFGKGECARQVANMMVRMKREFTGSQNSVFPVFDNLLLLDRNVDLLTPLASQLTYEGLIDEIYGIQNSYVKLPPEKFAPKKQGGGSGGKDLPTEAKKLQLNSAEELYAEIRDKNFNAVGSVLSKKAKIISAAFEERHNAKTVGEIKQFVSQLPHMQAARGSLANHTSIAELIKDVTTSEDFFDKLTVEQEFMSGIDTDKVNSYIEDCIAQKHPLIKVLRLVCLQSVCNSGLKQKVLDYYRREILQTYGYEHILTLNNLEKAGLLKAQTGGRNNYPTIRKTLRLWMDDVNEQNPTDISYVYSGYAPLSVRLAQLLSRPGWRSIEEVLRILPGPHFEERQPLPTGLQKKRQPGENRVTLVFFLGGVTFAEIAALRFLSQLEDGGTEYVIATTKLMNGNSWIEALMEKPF

Snap47 (mouse) = target: T3, Snap47 (mouse) (UniProt Q8R570)
T3 sequence: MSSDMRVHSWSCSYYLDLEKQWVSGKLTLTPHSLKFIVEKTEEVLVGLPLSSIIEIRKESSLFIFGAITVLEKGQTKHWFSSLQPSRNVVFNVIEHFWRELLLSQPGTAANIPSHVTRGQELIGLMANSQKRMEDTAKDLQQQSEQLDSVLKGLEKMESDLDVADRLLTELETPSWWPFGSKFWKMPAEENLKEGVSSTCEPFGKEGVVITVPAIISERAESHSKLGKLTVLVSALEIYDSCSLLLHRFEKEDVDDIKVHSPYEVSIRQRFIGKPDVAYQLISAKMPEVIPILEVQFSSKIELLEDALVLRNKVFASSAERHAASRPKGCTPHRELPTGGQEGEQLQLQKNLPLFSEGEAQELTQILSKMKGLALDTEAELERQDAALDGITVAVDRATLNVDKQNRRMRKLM

Vps41 (mouse) = target: T4, Vps41 (mouse) (UniProt Q5KU39)
T4 sequence: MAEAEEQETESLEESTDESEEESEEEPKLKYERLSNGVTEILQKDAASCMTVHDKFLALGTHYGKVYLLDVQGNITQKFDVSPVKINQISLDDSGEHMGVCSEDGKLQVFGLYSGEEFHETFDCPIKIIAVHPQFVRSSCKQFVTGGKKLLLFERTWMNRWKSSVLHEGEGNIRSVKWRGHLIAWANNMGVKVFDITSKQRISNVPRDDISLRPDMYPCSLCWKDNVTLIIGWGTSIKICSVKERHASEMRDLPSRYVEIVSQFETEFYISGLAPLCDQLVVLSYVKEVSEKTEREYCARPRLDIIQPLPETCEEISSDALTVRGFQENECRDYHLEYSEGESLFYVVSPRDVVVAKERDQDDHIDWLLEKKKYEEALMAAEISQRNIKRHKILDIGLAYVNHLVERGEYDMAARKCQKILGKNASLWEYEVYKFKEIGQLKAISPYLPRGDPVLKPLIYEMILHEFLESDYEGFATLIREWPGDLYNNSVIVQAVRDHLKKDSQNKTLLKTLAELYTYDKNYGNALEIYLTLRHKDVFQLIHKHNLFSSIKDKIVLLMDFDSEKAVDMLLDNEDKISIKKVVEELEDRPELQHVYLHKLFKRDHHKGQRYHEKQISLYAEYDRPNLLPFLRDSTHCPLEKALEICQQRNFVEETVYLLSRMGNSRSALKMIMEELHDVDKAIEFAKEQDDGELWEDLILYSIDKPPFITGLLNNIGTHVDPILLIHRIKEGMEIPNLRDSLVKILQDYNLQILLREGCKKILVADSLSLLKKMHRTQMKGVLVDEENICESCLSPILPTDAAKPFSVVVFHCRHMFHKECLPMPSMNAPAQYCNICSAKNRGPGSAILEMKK

binding (Vps33b (mouse)): binds | binding (Vps33a (mouse)): binds | binding (Snap47 (mouse)): binds | binding (Vps41 (mouse)): binds
B1: Endosomal solute carrier family 9 member A9 (SLC9A9) (protein, UniProt Q8BZ00 1-644)
chain: MAGQLRFTSGKDEDHFQHQGAVELLAFNFLLILTILTIWLFKNHRFRFLHETGGAMVYGLIMGLILRYATAPTDIDSGTVYNCGNLFFSPSTLLVNITDQVYEYKYQREINQHNISPHQGNAILEKMTFDPEIFFNVLLPPIIFHAGYSLKKRHFFQNLGSILTYAFLGTAISCVVIGLIMYGFVKAMVHAGQLKSGDFHFTDCLFFGSLMSATDPVTVLAIFHELHVDPDLYTLLFGESVLNDAVAIVLTYSISIYSPKENPNAFDTAAFFQSVGNFLGIFAGSFAMGSAYAVVTALLTKFTKLREFPMLETGLFFLLSWSAFLSAEAAGLTGIVAVLFCGVTQAHYTYNNLSSDSKLRTKQLFEFMNFLAENVIFCYMGLALFTFQNHIFNALFILGAFLAIFVARACNIYPLSFLLNLGRKQKIPWNFQHMMMFSGLRGAIAFALAIRNTESQPKQMMFTTTLLLVFFTVWVFGGGTTPMLTWLQIRVGVDLDESLKEEPSSQQEANKLDKNMTKTESAQLFRMWYGFDHKYLKPILTHSGPPLTTTLPAWCGPVSRLLTSPQAYGEQLKEDDVECIVNQDELAMNYQEQSPSPSSPTTKLALDQKSSGQTPGKENIYEGDLGLGGYDLKLEQTRGQPQMD
